{"source": "PubChem BioAssay (NCATS)", "note": "Inconclusive results, whose numbers are uncertain, are shown with a selection of clear calls. A potency beside an inconclusive call is a rough fit, not a confirmed value. Calls of active or inactive are those of the source. Calls come from the whole dose curve; as a rule, active = well fitted inhibition curve with a large enough effect; inconclusive = small, poorly fitted or top-dose-only effect; inactive = no such curve, though single readings can be large or run the other way. Potency is the fitted concentration of half-maximal effect; tags give direction and shape of the fitted curve.", "data": [{"target": "Retinaldehyde dehydrogenase 3 (Homo sapiens) (UniProt P47895)", "experiment": "qHTS for Inhibitors of the Aldehyde Dehydrogenase Family (ALDH1A3) Confirmatory screens (AID 2061311); note: nearly all actives have a fitted effect of over 60% in size", "conditions": "ALDH inhibition qHTS; activity change, negative = inhibition: at 46 µM (top of the series); series mostly up to 46 µM", "values": [{"smiles": "CC(C)(Cc1ccccc1)NCC(O)c1ccc(O)c(NS(C)(=O)=O)c1", "note": "(stereo unspecified)", "Potency": "inconclusive: 2.52 µM [inhibitor, full curve, poor fit]"}, {"smiles": "CC[C@H](CO)Nc1nc(NCc2ccc(-c3ccccn3)cc2)c2ncn(C(C)C)c2n1", "Potency": "inconclusive: 22.5 µM [inhibitor, partial curve, poor fit]"}, {"smiles": "CC(C)Nc1cc(-c2c[nH]c(C(=O)N[C@H](CO)c3cccc(Cl)c3)c2)c(Cl)cn1", "Potency": "inactive"}]}, {"target": "Retinaldehyde dehydrogenase 3 (Homo sapiens) (UniProt P47895)", "experiment": "qHTS for Inhibitors of the Aldehyde Dehydrogenase Family (ALDH1A3) Validation screen (AID 2061312); note: nearly all actives have a fitted effect of over 45% in size", "conditions": "ALDH1A3 enzyme inhibition qHTS validation, fluorescence; activity change, negative = inhibition: at 84.7 µM (top of the series)", "values": [{"smiles": "COc1ccc(-c2nc3ccc(C4=NNC(=O)CC4C)cc3[nH]2)cc1", "note": "(stereo unspecified)", "Potency": "inconclusive: 31.6 µM [inhibitor, partial curve]"}, {"smiles": "Cc1ccc(-c2c(C(=O)CF)n(CCCO)c3ncnc(N)c23)cc1", "Potency": "inconclusive: 44.7 µM [inhibitor, partial curve]"}, {"smiles": "COc1ccc2[nH]c(S(=O)Cc3ncc(C)c(OC)c3C)nc2n1", "note": "(stereo unspecified)", "Potency": "inconclusive: 8.91 µM [inhibitor, full curve, poor fit]"}, {"smiles": "Cc1nc(Nc2cnn(C3CCNCC3)c2)nc2c1N(C)C(=O)c1cc3ccccc3cc1N2C", "Potency": "inactive"}, {"smiles": "NCc1ccc(Nc2ncc(F)c(Nc3ccccc3)n2)cc1", "Potency": "inconclusive: 2.51 µM [inhibitor, full curve, poor fit]"}, {"smiles": "COc1cc(N2CCC(O)CC2)ccc1Nc1nc(Nc2ccccc2S(=O)(=O)C(C)C)c2[nH]cnc2n1", "Potency": "inconclusive: 50.1 µM [inhibitor, partial curve, poor fit]"}, {"smiles": "COc1cc2c(cc1-c1c(C)noc1C)ncc1[nH]c(=O)n(C(C)c3ccccn3)c12", "note": "(stereo unspecified)", "Potency": "inactive"}, {"smiles": "COc1cc2c(cc1OC)CN(C(=O)/C=C/c1c(-c3ccccc3)n(C)c3ncccc13)CC2", "Potency": "inconclusive: 11.2 µM [inhibitor, full curve, poor fit]"}, {"smiles": "O=S(=O)(NCc1cccc2ccccc12)c1cc(Cl)c(Oc2cccc(N3CCNCC3)c2)s1", "Potency": "inconclusive: 31.6 µM [inhibitor, partial curve, poor fit]"}, {"smiles": "CC[C@H](CO)Nc1nc(NCc2ccc(-c3ccccn3)cc2)c2ncn(C(C)C)c2n1", "Potency": "inconclusive: 4.47 µM [inhibitor, full curve, poor fit]"}, {"smiles": "Fc1ccc(-c2nc(C3CCNCC3)sc2-c2ccnc(NC3CC3)n2)cc1", "Potency": "inconclusive: 7.08 µM [inhibitor, full curve, poor fit]"}, {"smiles": "CC(C)Nc1cc(-c2c[nH]c(C(=O)N[C@H](CO)c3cccc(Cl)c3)c2)c(Cl)cn1", "Potency": "inconclusive: 12.6 µM [inhibitor, partial curve, poor fit]"}, {"smiles": "COc1c(Nc2ncc(Cl)c(N[C@H]3[C@@H](C(N)=O)[C@@H]4C=C[C@H]3C4)n2)ccc2c1CC[C@@H](N1CCOCC1)CC2", "Potency": "inactive"}]}]}
